# Results reported in publication PMC6919601, “Identification of Plasmodium dipeptidyl aminopeptidase allosteric inhibitors by high throughput screening” (PLoS ONE, 2019).
# About 230 (0.21%) of roughly 110,000 compounds showed an effect of 50% or more. The list shows a part of the results.
# Target: DPAP1 (Plasmodium falciparum, UniProt Q8IIJ9)
# Assay: primary screen, percent inhibition; read by cleavage of a fluorogenic dipeptide substrate; higher = more effect of the substance
# Parameters: species or system P. falciparum D10 trophozoite lysates; single well
# 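Note: 30 min substrate incubation versus DMSO and 10 µM JCP410 controls.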
# Chain of DPAP1 (Q8IIJ9 whole entry, looked up): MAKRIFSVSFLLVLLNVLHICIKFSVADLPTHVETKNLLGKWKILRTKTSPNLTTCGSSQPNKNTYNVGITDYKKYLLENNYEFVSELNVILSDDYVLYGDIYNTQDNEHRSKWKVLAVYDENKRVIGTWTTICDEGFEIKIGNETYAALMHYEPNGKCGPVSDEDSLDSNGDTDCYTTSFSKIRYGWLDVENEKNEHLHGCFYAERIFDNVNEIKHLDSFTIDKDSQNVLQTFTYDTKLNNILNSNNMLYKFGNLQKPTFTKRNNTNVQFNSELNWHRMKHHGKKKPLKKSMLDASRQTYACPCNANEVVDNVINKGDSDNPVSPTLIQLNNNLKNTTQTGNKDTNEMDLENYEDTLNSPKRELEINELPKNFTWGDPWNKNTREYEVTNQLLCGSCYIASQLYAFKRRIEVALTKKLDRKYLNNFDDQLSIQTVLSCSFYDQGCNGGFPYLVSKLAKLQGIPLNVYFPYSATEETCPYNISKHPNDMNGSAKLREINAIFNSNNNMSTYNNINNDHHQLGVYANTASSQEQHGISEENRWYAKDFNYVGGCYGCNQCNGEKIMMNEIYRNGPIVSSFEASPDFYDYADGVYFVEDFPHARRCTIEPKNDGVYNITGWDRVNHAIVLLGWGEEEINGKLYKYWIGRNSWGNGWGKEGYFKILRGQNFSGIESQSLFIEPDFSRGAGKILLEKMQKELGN
row,SMILES,% Inhibition @ 10 uM
1,Cc1coc2cc3oc(=O)c(CCC(=O)NCCc4ccccc4F)c(C)c3cc12,2.54%
2,COc1cccc(CC(NC(=O)OCc2ccccc2)C(=O)NCC#N)c1 (centres unmarked),-4.72%
3,Cc1ccc(N(CC(=O)Nc2ccc(Cl)cc2)S(C)(=O)=O)c(C)c1,0.793%
4,CCOP(=O)(CN1CCOCC1)OCC,-3.65%
5,CCOC(=O)C1=C(CN2CCc3ccccc3C2)NC(=O)NC1c1cccc(OC)c1OC (centres unmarked),2.12%
6,C=CCN1C(=O)S/C(=C\c2ccc(OC(C)C(=O)O)c(OC)c2)C1=O (centres unmarked),-0.105%
7,COc1ccc(C(=O)Nc2ccccn2)cc1,-1.63%
8,Cc1ccc(S(=O)(=O)Nc2cc3c4c(oc3c3ccccc23)CCCC4=O)cc1,1.64%
9,COCCNC(=O)c1ccc(-c2nn(C)c(=O)c3ccccc23)cc1,-1.43%
10,CCSc1nc(O)c2c(n1)N=C1CCCC(O)=C1C2c1ccccc1OC (centres unmarked),2.06%
11,Cc1nc(NC(=O)CCn2cnnn2)sc1C,5.02%
12,Cc1nn(CC(=O)NCc2ccccc2F)c(=O)c2nn(-c3ccccc3)c(C)c12,-1.21%
13,CC1CC(C)CN(C(=O)Cn2ncc3c4ccccc4n(C)c3c2=O)C1 (centres unmarked),1.41%
14,COC(=O)c1ccc(/C=N/n2cnnc2)cc1,-3.98%
15,CCN(CC)c1ccc(C=C(C#N)C#N)c(OC(C)=O)c1,-2.03%
16,O=C(NCc1ccccc1)c1ccc2nc(O)c(-c3ccccc3)c(O)c2c1,5.49%
17,COCCn1c(CN2CCCCC2)nc2c1c(=O)n(C)c(=O)n2C,0.317%
18,O=C(O)CCCc1c(-[n+]2ccccc2)[nH]c2ccccc12,3.04%
19,CN1CCc2c(sc3nc(S)nc(N)c23)C1,23.8%
20,O=C(Nc1ccc(Cl)c(Cl)c1)c1cnccn1,-1.56%
21,CCN(C(=O)c1cc2ccccc2oc1=O)c1ccccc1,1.7%
22,COc1ccc(CNCC2CCCO2)cc1 (centres unmarked),4.22%
23,O=C(CSCC(=O)Nc1cccc(C(F)(F)F)c1)Nc1ccc(F)cc1,0.161%
24,CC1(C)Cc2c(c(-c3ccco3)nc3sc4c(N5CCCCC5)ncnc4c23)CO1,-1.33%
25,Clc1cccc(OCCCCN2CCCC2)c1,-12%
26,Cc1cc(OCC(=O)Nc2ccc(CC#N)cc2)cc(C)c1Cl,-1.52%

row,SMILES,% Inhibition @ 10 uM
1,CC1=C(C(=O)OCCc2ccccc2)C(c2ccc3c(c2)OCO3)C2=C(O)CC(C)(C)CC2=N1 (centres unmarked),5.94%
2,O=C1C2C3C=CC(C4C=CC43)C2C(=O)N1c1ccccc1 (centres unmarked),3.93%
3,CC12CC3CC(C)(C1)CC(OCCNC(=O)c1nc(-c4cccnc4)no1)(C3)C2,4.74%
4,CC1CCN(S(=O)(=O)c2ccc(NC(=O)c3ccc(Cl)c(Cl)c3)cc2)CC1,-6.75%
5,Cc1cccc(NC(=O)c2sc3nc(N)c(C#N)cc3c2N)c1,25.1%
6,O=C(Nc1ccc([N+](=O)[O-])cc1)c1cccc(S(=O)(=O)NCc2ccccc2)c1,-3.52%
7,Nc1nnnn1/N=C/c1ccccc1C(F)(F)F,6.5%
8,COC(=O)c1cc(Cl)c(C(=O)OC)cc1Cl,7.5%
9,COc1ccc2c(C)c(CCC(=O)NCc3ccc4c(c3)OCO4)c(=O)oc2c1,2.54%
10,COc1ccc2c(c1)C1=NN(/C(C)=C/C(C)=O)C(c3ccc([N+](=O)[O-])cc3)C1CC2 (centres unmarked),4.12%
11,c1ccc(Oc2nc(-c3ccncc3)nc3ccccc23)cc1,-4.39%
12,COc1ccc(CCNC(=O)C2CCN(S(=O)(=O)c3cccc4nsnc34)CC2)cc1OC,-7.16%
13,Cc1cccc(NC(=O)CN2C(=O)S/C(=C/c3cccs3)C2=O)c1,2.13%
14,O=C(CCCCCN1C(=O)c2ccccc2C1=O)Nc1cccc(C(F)(F)F)c1,-0.424%
15,NC(=O)Cn1nnc(-c2ccc(OCc3cc4c(cc3Br)OCO4)cc2)n1,3.68%
16,Cn1c2c(c(=O)n(C)c1=O)C(c1cccc(F)c1)C1C(=O)c3ccccc3C1=N2 (centres unmarked),6.1%
17,COc1ccc(C(=O)Nc2nc3n(n2)C(c2ccccc2)C=C(c2ccccc2)N3)cc1 (centres unmarked),-3.96%
18,COc1ccccc1C1C=C(c2cccnc2)Nc2nnnn21 (centres unmarked),-1.46%
19,CC(C)NCC(O)COc1cc2c(cn1)CCCC2 (centres unmarked),-0.424%
20,CCCCSc1nn2c(=O)c(C)nnc2s1,-7.96%
21,O=C1C2C(c3ccccc3)OC3(C(=O)c4ccccc4C3=O)C2C(=O)N1c1cccc(Cl)c1 (centres unmarked),5.26%
22,CC1CC(C)CN(C(=O)c2cc3c(O)nc4ccccc4c3n2C)C1 (centres unmarked),-5.1%
23,O=C(O)c1ccc(S(=O)(=O)c2ccccc2)cc1,-1.77%
24,COc1ccc(-c2nnc3sc(NC(=O)C(C)Oc4ccccc4)nn23)cc1OC (centres unmarked),2.81%
25,Cc1c(C(=O)NCCCN2CCOCC2)oc2ccc3c(c12)C=CC1(CCCC1)O3,13.3%
26,O=C(CSc1ccc(-c2cccs2)nn1)NCc1ccc(F)cc1,-0.822%

row,SMILES,% Inhibition @ 10 uM
1,O=C(Nc1sc2c(c1C(=O)O)CCCC2)c1ccc(-c2ccccc2)cc1,-2.13%
2,Cn1nc(-c2ccc(Cl)cc2)c2cc(C(=O)N3CCOCC3)sc21,-6.89%
3,CCOc1ccc(CCNC(=O)C2=CCN(S(=O)(=O)c3ccc(F)cc3)CC2)cc1OCC,-5.19%
4,O=C(NCc1ccc2c(c1)OCO2)C(Cc1ccccc1)NS(=O)(=O)c1cccc2nsnc12 (centres unmarked),2%
5,COc1ccc(Cl)cc1C(=O)Nc1ccccc1F,1.5%
6,COc1ccccc1NC(=O)c1cc(Cl)ccc1OC,1.03%
7,CN(C)CCCNc1nc(-c2ccccc2O)nc2ccccc12,4.08%
8,CCN1CCN(C(=O)Nc2cn(CC(C)C)c(=O)c3ccccc23)CC1,-3.26%
9,O=C(NC(c1ccccc1)c1ccccc1)C(=O)c1c[nH]c2ccccc12,1.03%
10,O=C(Nc1ccc(F)cc1)N1CCN(C(=O)c2ccco2)CC1,2.66%
11,Cc1cc2c(s1)CCCCc1nnnn1-2,-8.28%
12,CC(Nc1ncnc2c1cnn2C)c1ccccc1 (centres unmarked),1.58%
13,CC12CCCC(=O)C1C(c1ccccc1)NC2c1ccccc1 (centres unmarked),-4.75%
14,COc1ccc(CC(C)N[C@H]2CC[C@H](O)CC2)cc1OC (some centres unmarked),3.19%
15,CCCCNC(=O)CSc1nc2nnc(C)c-2c(N)n1-c1cccc(OC)c1,1.2%
16,Clc1cccc(Nc2nc3nonc3nc2N2CCOCC2)c1,5.66%
17,Cc1ccc(C)c(-c2c(C#N)c(N)nc3c2CCCCC3)c1,-2.21%
18,O=C(Nc1ccc(Cl)cc1)N1CCN(c2ccccc2F)CC1,2.22%
19,CCCSc1ncc(Cl)c(C(=O)Nc2nc3ccc(OC)cc3s2)n1,-0.45%
20,CC1CCCN(CC(O)COc2ccccc2F)C1 (centres unmarked),12.3%
21,CC1CCCC(C)N1C(=O)c1cc(-c2ccc3c(c2)OCO3)on1 (centres unmarked),-0.591%
22,COc1ccc(-c2nc(CSc3nc(O)c4c(n3)CCCC4)c(C)o2)cc1,-1.21%
23,Cn1cccc1Cc1nnc(SCC(=O)NCC2CCCO2)n1-c1ccc(Cl)cc1 (centres unmarked),3.75%
24,CC(=O)N1N=C(c2ccccc2O)CC1c1ccc(Cl)cc1 (centres unmarked),2.06%
25,Cc1nn(CC(=O)NC2CCCC2)c2ccccc12,-2.88%
26,O=C(O)c1ccccc1NC(=O)C1CCCC1,1.93%

row,SMILES,% Inhibition @ 10 uM
1,COc1ccc(Cl)cc1-n1nnc(-c2nsc(NC(=O)c3cccs3)n2)c1C,-0.658%
2,CCOC(=O)c1c(Cl)nc2ccccc2c1Cl,-4.27%
3,CC(C)C[C@H](NC(=O)N1CCN(c2ccccn2)CC1)C(=O)NCC#N,-1.82%
4,COc1ccc(N2CCN(C(=O)CN(C)S(=O)(=O)c3c(C)cc(C)cc3C)CC2)cc1,-2.29%
5,Cc1cc(O)nc(N(C)Cc2ccccc2)n1,2.16%
6,Cc1nn(C(C)C(=O)N2CCN(c3ccccn3)CC2)c(=O)c2nn(-c3ccccc3)c(C)c12 (centres unmarked),0.58%
7,O=C(O)c1cc(NS(=O)(=O)c2ccc(F)cc2)ccc1O,-0.736%
8,Cc1cc(Cl)nc(Cl)c1C#N,-0.818%
9,O=C(CCCc1cn(Cc2ccc(F)cc2)c2ccccc12)NCC1CCCO1 (centres unmarked),3.8%
10,Cc1cc(C)nc(SCc2nnc(SCC(N)=O)n2-c2cccc(C(F)(F)F)c2)n1,-3.37%
11,C=CCNC(=O)/C(=C/c1ccc2c(c1)OCO2)NC(=O)c1ccc(OC)cc1,2.51%
12,COc1cc(OC)c(OC)cc1CN1CCN(C(=O)COc2ccccc2)CC1,2.3%
13,Cc1ccc(-n2ncc3c(NCCc4ccc(S(N)(=O)=O)cc4)ncnc32)c(C)c1,2.95%
14,Cc1cc(C)c2nc(N3CCC(C(=O)NCC(C)c4ccccc4)CC3)sc2c1 (centres unmarked),4.95%
15,O=C1/C(=C\c2ccccc2)N=C2SC=C(c3ccc(Br)cc3)N12,3.05%
16,CCCC(=O)Nc1ccc(Oc2ccc(NC(=O)CCC)cc2)cc1,0.605%
17,CSc1ccc(/C=C2/SC(=O)NC2=O)cc1,-0.582%
18,N#CC1=C(N)OC2=C(C(=O)CC(c3ccccc3)C2)C1c1ccc(Br)s1 (centres unmarked),-12.9%
19,CCO/C(O)=C1\C(C)=NC2=C(C(=O)CC(C)(C)C2)C1c1ccc(OC)c(O)c1 (centres unmarked),-1.71%
20,O=S(=O)(c1ccc2ccccc2c1)N1CCN(c2nnc(-c3ccccc3)c3ccccc23)CC1,-3.41%
21,Cc1c(O)ccc2cc(S(=O)(=O)c3ccccc3)c(=O)oc12,0.44%
22,CCOC(=O)c1ccc2nc(Nc3nc4c(F)cccc4s3)sc2c1,-3.09%
23,COc1ccc(CCC(=O)Nc2ccc(S(N)(=O)=O)cc2)cc1,4.64%
